Some of the results follow.
B1: chr8:97851540:97851652:+|3pUTR|ENSG00000104341|msi1_unk|total|mutant (ssRNA)
RNA: GGGAGUUCUACAGUCCGACGAUCCACUUUUGCCAUGAGCCUCUCUGAGCUUGUUUGUUGCUGAAAUGCUACUUUUUAAAAUUCCGAUGUCCGAUUGAAAACUGCCGUUUUCAACAUAUGCUUUGCUGGAACACUGUGACCGAUCAACAGAGGAUUGAGCAUCA
B2: ENSG00000155158:stop:overlap|stop_codon|ENSG00000155158|stop_codon|NA|stop_codon (ssRNA)
RNA: GGGAGUUCUACAGUCCGACGAUCAAACCAUCUCAAUUUGGCUUAAAAAAAAAUCUGGUAGAAGAGAGGGAAAGACAUCUUCAUAGUGGGACUAUAUUCAUUCCUCCAAAGUUACAGCUGCUCUAAAUCUGUGAGUGCUGAAAUCAACAGAGGAUUGAGCAUCA
B3: chr1:113764432:113764533:-|3pUTR|ENSG00000081019|msi1|FALSE|bound_elsewhere (ssRNA)
RNA: GGGAGUUCUACAGUCCGACGAUCAAAAUAUUCUGAAAUAGGUUAAAUCUUAUAUAAAUAUUACUUUGUGCAAUAUUGUUGUGUAGUUAAAUGCAUAUUAGCAAAGUAUAGAGGUCACUGUGUAAACCGAUAGAAAAGUAACCACAACAGAGGAUUGAGCAUCA
B4: ENSG00000124766:be:win_701|CDS|ENSG00000124766|bound_else_gene|NA|bound_elsewhere_windowed (ssRNA)
RNA: GGGAGUUCUACAGUCCGACGAUCCCGCCUCCUUCGCCGCCGAACAGGCGGGGGCCGCCGCCCUGCUGCCCCUGGGCGCCGCCGCCGACCACCACUCGCUGUACAAGGCGCGGACUCCCAGCGCCUCGGCCUCCGCCUCCUCGGCAACAGAGGAUUGAGCAUCA
B5: chr1:161222291:161222522:-|three_prime_utr|ENSG00000158874|control|control|control (ssRNA)
RNA: GGGAGUUCUACAGUCCGACGAUCACACAGCCUGCCACCCAGUGAAGUGUCCAGACCAUUGUCUUCCAACCCCAGCUGGCCUCUAGAACACCCACUGGCCAGUCCUAGAGCUCCUGUCCCUACCCACUCUUUGCUACAAUAAAUCAACAGAGGAUUGAGCAUCA
B6: ENSG00000198589:be:win_3101|CDS|ENSG00000198589|bound_else_gene|NA|bound_elsewhere_windowed (ssRNA)
RNA: GGGAGUUCUACAGUCCGACGAUCUGGAAGAAACACUGACAAAUGAGACAAGGAAUGCAGAUGAUUUAGAAGUAUCUUCUGACAUAAUAGAAGCUGUGGCUAUUUCCUCUAAUUCUUUUAUAACAACUGGCAAAGAUUCAAUGACAACAGAGGAUUGAGCAUCA
B7: chrX:150768173:150768360:-|3pUTR|ENSG00000102181|msi1|total|mutant (ssRNA)
RNA: GGGAGUUCUACAGUCCGACGAUCUCCCAUCUGAUUCCACCGGGGGCUGGGUGUGGCCUUCGGGUUGACAUGAGAAAGGUCUUCCGCAAUCAUUUCUGCACCGGAGAUGAGUUUUAUCCUGUGUUGGGGAGAGGUGCUCACCCUCAACAGAGGAUUGAGCAUCA
B8: chr3:141442868:141442977:+|CDS|ENSG00000177311|unk|total|mutant (ssRNA)
RNA: GGGAGUUCUACAGUCCGACGAUCCCAGCCAUCACUAAUGGGCCAAGGAUCACAAAUGCAUUUUCCAUCAUCGAAACAGAAAACCGUAAUAACAUGUUUUCCCCGCUGGACUUGAGGGCAAGUUUCAAAAAGGUCUCCGACUCCCAACAGAGGAUUGAGCAUCA
B9: chr17:74609884:74612652:-|three_prime_utr|ENSG00000186407|control|control|control (ssRNA)
RNA: GGGAGUUCUACAGUCCGACGAUCGACCUGUGGACUCUGGAGGGAUUUAUUGUUCCUGUGCCUCAAAGGAGGGUCCUGGCUCUUAGAGGACACUCCUCUGGAGUCCUCAAUGUGCAGCUUGGGGGUCCUCCUUUCUCCUCCCCACAACAGAGGAUUGAGCAUCA
B10: chr5:148417036:148417137:+|CDS|ENSG00000145868|unk|FALSE|unique (ssRNA)
RNA: GGGAGUUCUACAGUCCGACGAUCGGUUGUGCUCGAGUUGGUCUGAGUGCAGGCACAGGAAUUGGUGUUUCAUCAGCUCUUGUUAGCAACCAGAACUCCAACAAUGACGAUAAUAAUGCCCAGAAUAACAAUGCCAACAUCCACCAACAGAGGAUUGAGCAUCA
B11: chr1:55067125:55067226:-|3pUTR|ENSG00000162402|msi1|total|mutant (ssRNA)
RNA: GGGAGUUCUACAGUCCGACGAUCUAUCAUCGCUGGCGACUGCACUCUCAGGAGCCCAAAAUCAGGAGUGAAAUUGCCACUUCCCGUCCCCUUAUUUCCUAUGGAAACAACGCCUUCCGCACCCCCCGCACCUGCCGUCCUCACCAACAGAGGAUUGAGCAUCA
B12: chr12:122133860:122133961:+|CDS|ENSG00000175727|msi1|FALSE|unique (ssRNA)
RNA: GGGAGUUCUACAGUCCGACGAUCUUUUGUGCACCCCAAACCUGUAUCCUUGACUGGGGGCAGGCCUAAGCAGCCCCACAAAAUAGUGCCUGCUCCCAAACCAGAGCCCGUGUCCUUGGUGUUGAAGAAUGCCCGUAUCGCCCCCAACAGAGGAUUGAGCAUCA
B13: chr14:75134463:75134564:-|3pUTR|ENSG00000170348|msi1|FALSE|unique (ssRNA)
RNA: GGGAGUUCUACAGUCCGACGAUCCUGUUUGGACUAUGUUUUCUUUUCUUCUCCCACUUGCUCAGCAGCUUGGGCUUCCAUUCUAGUUCUUUUACCAAGAUUUUUGUGUGACCAUGUUGACUUCAUUUGGAUUGCCCUCUUUCACAACAGAGGAUUGAGCAUCA
B14: chr2:32377587:32377702:+|CDS|ENSG00000115760|unk|FALSE|unique (ssRNA)
RNA: GGGAGUUCUACAGUCCGACGAUCGGUGAAAUGUCAGUAUAUCUCUGCUGUGGAUAAAGUUAUAUUUGUGGAUGAUUAUGCAGUAGGGUGUAGGAAGGACCUUAAUGGAAUCUUGUUGUUAGACACUGCUCUGCAAACUCCAGUCAACAGAGGAUUGAGCAUCA
B15: ENSG00000070961:be:win_1601|CDS|ENSG00000070961|bound_else_gene|NA|bound_elsewhere_windowed (ssRNA)
RNA: GGGAGUUCUACAGUCCGACGAUCAGGGUGGAUUACCUCGUCACGUUGGUAAUAAAACUGAAUGUGCCUUGUUGGGACUUCUUUUGGAUUUAAAACGGGAUUAUCAGGAUGUUAGAAAUGAAAUACCAGAAGAAGCACUGUACACAACAGAGGAUUGAGCAUCA
B16: chr20:58910839:58911044:+|3pUTR|ENSG00000087460|msi1_unk|FALSE|overlapping (ssRNA)
RNA: GGGAGUUCUACAGUCCGACGAUCCCUUAAGCACAAUUAAUUAAAAGUGAAACGUAAUUGUACAAGCAGUUAAUCACCCACCAUAGGGCAUGAUUAACAAAGCAACCUUUCCCUUCCCCCGAGUGAUUUUGCGAAACCCCCUUUCAACAGAGGAUUGAGCAUCA
B17: chr17:74579364:74580001:-|three_prime_utr|ENSG00000204345|control|control|control (ssRNA)
RNA: GGGAGUUCUACAGUCCGACGAUCGGGCGAAAGGCCCUCCCACAGAAGAAAAAACAUUUUCUUUUCUCUUCUUUUUUUCUUUCUAGAGAUAGAGUCUUGCUCUGUCACCCAGGCUGGAAUGCAAUGGUGUAAUCUCUGCUCACUCAACAGAGGAUUGAGCAUCA
B18: ENSG00000083857:stop:overlap|stop_codon|ENSG00000083857|stop_codon|NA|stop_codon (ssRNA)
RNA: GGGAGUUCUACAGUCCGACGAUCCACUUCCAUAUUCCAUUUUAUUUGUGGUACAUACAUUUCUCAGCCAUUUGGAAUUGUCAUAGAUACUGGCGUAAGGACAUGCUGUAUGGCUGAUUGGGCCUCUGGUAUCACUGGGAUACACAACAGAGGAUUGAGCAUCA
B19: ENSG00000103404:stop:overlap|stop_codon|ENSG00000103404|stop_codon|NA|stop_codon (ssRNA)
RNA: GGGAGUUCUACAGUCCGACGAUCUCUGCCCAAGAGCAAAUAAACGAACAUUCUUCCUCCUUUUCCUGAGUUGGGUCGUCCAGUAGGUAGCUGACUGAUUGGGGAGUGGUAUGUGCAGAUGGCAUUGUCUGGUCAACUGAGGAUCAACAGAGGAUUGAGCAUCA
B20: chr13:51761002:51761103:+|3pUTR|ENSG00000139668|unk|total|mutant (ssRNA)
RNA: GGGAGUUCUACAGUCCGACGAUCACGGCAAGAUUGUAAUCCUGCUGUAUUCCUCGCCCUCUGUAUUCUAUCCCUUUAAAAACCCGAUAUUUAAACAUUUUAUCCUAAUGUGUUUCAUCAGAACACUUUGCACACUUUCUUACUCAACAGAGGAUUGAGCAUCA
B21: chr16:68260521:68260622:+|3pUTR|ENSG00000103066|msi1|FALSE|unique (ssRNA)
RNA: GGGAGUUCUACAGUCCGACGAUCUCGCAGCUUCCCUGAGCUGCACCUCUUGCUAACCCCACCAUCACACUGCCACCCUGCCCUAGGGUCUCACUAGUACCAAGUGGGUCAGCACAGGGCUGAGGAUGGGGCUCCUAUCCACCCCAACAGAGGAUUGAGCAUCA
B22: chr1:113685846:113685948:+|3pUTR|ENSG00000081026|unk|total|mutant (ssRNA)
RNA: GGGAGUUCUACAGUCCGACGAUCUAUAUACACUUGAGGUUCUGAUCCGAGAAAGAUCUGUAAAUUGCUCAUUAUUUUUUAUACCGAUAUUUAAAAAAAACAGUUUAUGGCCUGCAUUUCUUUUACUGUCACAUUGGUUUAAUGCAACAGAGGAUUGAGCAUCA

Each binder was assayed against MSI1 full-length (mouse, UniProt Q61474 1-362) (assay: nsRBNS (natural sequence RNA bind-n-seq); RBNS binding buffer (assumed for nsRBNS): 25 mM Tris pH 7.5, 150 mM KCl, 3 mM MgCl2, 0.01% Triton X-100, 500 ug/ml BSA, 20 U/ml SUPERase-In, 4 C; UNK is unkempt and MSI1 is Musashi-1; names of the RNAs are library labels; protein concentration not given here; high values mean tight binding).
Sequence of UniProt Q61474 (Q61474 whole entry): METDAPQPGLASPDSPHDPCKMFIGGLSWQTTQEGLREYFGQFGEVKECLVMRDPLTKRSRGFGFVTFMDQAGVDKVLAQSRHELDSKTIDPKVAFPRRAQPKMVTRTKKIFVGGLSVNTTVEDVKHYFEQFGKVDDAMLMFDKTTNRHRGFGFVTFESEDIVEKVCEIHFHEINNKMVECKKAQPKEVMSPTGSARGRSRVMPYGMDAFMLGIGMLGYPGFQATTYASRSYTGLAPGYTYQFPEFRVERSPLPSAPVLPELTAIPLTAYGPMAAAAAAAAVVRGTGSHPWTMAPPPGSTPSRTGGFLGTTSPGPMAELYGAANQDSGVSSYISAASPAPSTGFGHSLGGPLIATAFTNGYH

In order of rising binding signal:
1. B1  0.302 enrichment R
2. B10  0.345 enrichment R
3. B4  0.387 enrichment R
4. B8  0.41 enrichment R
5. B7  0.431 enrichment R
6. B9  0.441 enrichment R
7. B13  0.458 enrichment R
8. B21  0.468 enrichment R
9. B19  0.475 enrichment R
10. B2  0.487 enrichment R
11. B17  0.507 enrichment R
12. B12  0.519 enrichment R
13. B6  0.533 enrichment R
14. B11  0.596 enrichment R
15. B14  0.684 enrichment R
16. B18  0.711 enrichment R
17. B15  0.721 enrichment R
18. B16  0.824 enrichment R
19. B5  1.04 enrichment R
20. B20  1.22 enrichment R
21. B22  1.76 enrichment R
22. B3  51.3 enrichment R
